This note sets out measurements from ChEMBL document CHEMBL4888484, “Replenishing the malaria drug discovery pipeline: Screening and hit evaluation of the MMV Hit Generation Library 1 (HGL1) against asexual blood stage Plasmodium falciparum ,using a nano luciferase reporter read-out” (2022).

Screen size: about 150,000 compounds; about 540 (0.36%) showed an effect of 50% or more. This is one part of the list.

The test deals with Plasmodium falciparum. The experiment in a line: Primary screen in NF54 nanoGlo assay, in single point, at 2uM, 72h; a lower Z score goes with more inhibition. The format is functional, Erythrocyte. The conditions noted are these: timepoint 72 hour.
With `CCCOCC(=O)N1C[C@H](C(F)(F)F)[C@@H](S(=O)(=O)N(C)C)C1`, the % Inhibition (usually the drop in the measured response relative to a control, in per cent) is listed as -2% and the Z score is listed as 0.29.

As to `O=C1NC2(CCOCC2)C(=O)N1Cc1cccc(F)c1`, the “% Inhibition” value is on record as -5% and the Z score was 0.55.

For the molecule `CC[C@@](C)(CC(=O)O)NC(=O)Cc1cccc(Cl)c1`, the “% Inhibition” value was 2% and the Z score is listed as -0.24.

`CC[C@@H](C(=O)O)n1cc(Br)c(C(F)(F)F)n1`: the “% Inhibition” value is -19% and the Z score came out at 2.23.

Take `CC(C)c1ccccc1NC(=O)OCC(F)(F)F`: the “% Inhibition” value turned out to be 3% and the Z score is on record as -0.26.

Take `COc1cccc(-c2ccc(N3CCCN(C(=O)CN(C(=O)c4ccccc4C)C(C)C)CC3)nn2)c1`: the “% Inhibition” value was determined as 14% and the Z score was -1.43.

Regarding `Cc1ccccc1OC[C@H](O)C(=O)N1CCS(=O)(=O)CC1`, the “% Inhibition” value is given as 5% and the Z score was -0.76.

For the molecule `CCN(CC)c1ncc(CN2CC[C@H](NS(C)(=O)=O)C2)s1`, the “% Inhibition” value is -14% and the Z score came out at 1.85.

Consider `CCC1NC(=O)N(CC(O)Cc2cccc(Cl)c2)C1=O` (configuration not stated), for which the “% Inhibition” value is listed as 7% and the Z score is reported as -1.16.

Consider `Cc1ccc(Nc2cc(C)nc3nc(-c4cccnc4)nn23)c(C)c1`, for which the “% Inhibition” value was -12% and the Z score is given as 2.05.

As for `O=C(Nc1ncsc1C1CC1)N1C[C@@H]2CS(=O)(=O)C[C@@H]2C1`, the “% Inhibition” value is -7% and the Z score is given as 1.08.

Take `c1nc(NCc2ccc3c(c2)OCCO3)c2[nH]cnc2n1`: the “% Inhibition” value is recorded as -3% and the Z score was 0.5.

For `Cc1cc2c(cc1S(=O)(=O)N1CCC(C(=O)N(Cc3ccco3)C[C@H]3CCCO3)CC1)OCC(=O)N2`, the “% Inhibition” value came to 7% and the Z score is recorded as -0.82.

`O=C(Nc1cccc(C(F)(F)F)c1)c1cn2c3c(cc(Br)cc3c1=O)CC2`: the “% Inhibition” value was -6% and the Z score turned out to be 0.77.

Consider `CCCOc1ccc(CN2C(=O)c3cc(C(C)C)nn3C[C@@]2(C)C(=O)NC2CCCCCCC2)cc1`, for which the “% Inhibition” value is recorded as 1% and the Z score is -0.17.

Turning to `COC[C@@]1(CNc2cccc(Br)c2C#N)CCCN1`, the “% Inhibition” value is on record as -5% and the Z score was 0.7.

For the molecule `O=C(Cc1c[nH]c2ccccc12)Nc1ccccc1C(=O)NC1CC1`, the “% Inhibition” value is reported as -4% and the Z score was found to be 0.55.

`CC(C(=O)Nc1cccc2ccccc12)N1CCC(c2ccccc2)C1` (configuration not stated): the “% Inhibition” value is -9% and the Z score came to 1.63.

Regarding `CC(C)N1CCO[C@H](c2noc(C3CCN(c4nc5ccccc5o4)CC3)n2)C1`, the “% Inhibition” value is recorded as -8% and the Z score is 0.92.

For `COC[C@@H]1CCC[C@@H]1NC(=O)c1cc(Cl)c[nH]c1=O`, the “% Inhibition” value is on record as -10% and the Z score is 1.85.

On to `O=S(=O)(c1ccc2c(c1)CCN2S(=O)(=O)c1ccccc1)N1CCOCC1`, for which the “% Inhibition” value is -8% and the Z score worked out at 1.51.

With `CC[C@@H]1Oc2ccc(NC(=O)Cc3ccc(F)cc3)cc2CN(Cc2cccc(OC)c2)C1=O`, the “% Inhibition” value stood at 7% and the Z score is given as -1.21.

`COCCn1cc2c(n1)[C@@H](NCc1ccccc1)CCC2`: the “% Inhibition” value was -1% and the Z score was determined as 0.06.

For `Cc1nc[nH]c1CN1CC[C@@H]2N(Cc3cccs3)CCC[C@@]2(CO)C1`, the “% Inhibition” value is -14% and the Z score was found to be 1.66.

Regarding `Cn1c2c(c(=O)n(C)c1=O)[C@H](c1ccccc1)NC(O)=N2`, the “% Inhibition” value was -12% and the Z score turned out to be 1.91.

As for `COc1cccc(OCC2CN(CC(O)COc3ccccc3)CCO2)c1` (configuration not stated), the “% Inhibition” value is 6% and the Z score is reported as -0.87.

As to `CC(C)(C)CC(=O)Nc1ccccc1C(N)=O`, the “% Inhibition” value is 35% and the Z score is -4.55.

As to `N#Cc1cccc(NC(=O)c2cn(C[C@H](O)c3ccccc3)nn2)c1`, the “% Inhibition” value is reported as -16% and the Z score is reported as 3.11.

Consider `Cc1nc(-c2csc(S(=O)(=O)N3CCCCC3)c2)sc1C(=O)N1CCCCC1`, for which the “% Inhibition” value is reported as -20% and the Z score is listed as 2.83.

Take `Cc1ccc(C(=O)NCC2CCN(Cc3ccccc3F)CC2)cc1-n1nnc2cccnc21`: the “% Inhibition” value is -9% and the Z score came out at 1.69.

As for `CCS(=O)(=O)N1CCC2(CC1)C[C@@H](Cc1ccc(C)cc1)CCO2`, the “% Inhibition” value is reported as -15% and the Z score is 1.88.

With `Cc1ccc([C@H](CNC(=O)C(C)(C)C)OCCO)cc1`, the “% Inhibition” value is reported as 6% and the Z score is -0.85.

`CC12CCCN1C(=O)N(C1CC(=O)N(c3ccccc3)C1)C2=O` (configuration not stated): the “% Inhibition” value was -1% and the Z score is 0.14.

For the molecule `FC(F)(F)Cn1nc(COc2ccccc2)nc1C1CCOCC1`, the “% Inhibition” value was -4% and the Z score turned out to be 0.64.

On to `O=C(Nc1ccnn1C1CCN(CCCc2ccccc2)CC1)c1ccccc1`, for which the “% Inhibition” value is -6% and the Z score is 1.1.

Turning to `O=C1CCCN1C[C@H]1CCCN(C(=O)Nc2nncs2)C1`, the “% Inhibition” value is -6% and the Z score came out at 0.84.

`C[C@H]1CCc2c(cnc3scc[n+]23)C1`: the “% Inhibition” value is -6% and the Z score worked out at 0.87.

Turning to `Cc1oc2ncnc(NC(=O)c3ccc(Oc4ccc(C(F)(F)F)cn4)cc3)c2c1C`, the “% Inhibition” value was 6% and the Z score is listed as -0.89.

Regarding `Cc1cc(C)n2cc(COC(=O)c3c(C)noc3C)nc2n1`, the “% Inhibition” value was -5% and the Z score is recorded as 0.53.

In the case of `O=C(Nc1ccccc1)N1CCC2(CC1)OCCc1ccsc12`, the “% Inhibition” value is -13% and the Z score was determined as 1.46.

With `CCC1(CC)C(NC(=O)c2cncc(O)c2)CC1OC` (configuration not stated), the “% Inhibition” value came out at 10% and the Z score is reported as -1.68.
